From the supplement of paper PMC6135742 come the findings set out here.

SMILES strings stand for the structures. “And” between values parts separate entries of the source, which are not always exact repeats. Equal entries are not always repeated. Structures can show the parent of a compound that is named as a salt. ± gives the standard deviation of the averaged measurements. In all, about 2,600 compounds were measured (“total cell number (DAPI+ nuclei) relative to DMSO vehicle control”: median about -1.4, lowest 2% from about -23 on). The list shows a part of the results.

In this test the test system is jimpy (Plp1 jimpy) mouse iPSC-derived oligodendrocyte progenitor cells. Nature of the test: total cell number (DAPI+ nuclei) relative to DMSO vehicle control (SDs above negative control mean); higher = more surviving cells. As to conditions: 10 µM; 3 days.
Take `Cc1cc(=O)[nH]c(=S)[nH]1` [Methylthiouracil]: the total cell number was -0.387.
In the case of `COc1cccc(-c2cc(=O)c3ccccc3o2)c1N` it was -3.56 and -6.76; in that of `CC(=O)c1ccc2c(c1)N(CCCN(C)C)c1ccccc1S2` [Acepromazine maleate], -4.57; in that of `CN(C)CCOC(C)(c1ccccc1)c1ccccn1` (stereo not drawn) [Doxylamine Succinate], 0.0683.
The value for `CN(C)CCOC(C)(c1ccccc1)c1ccccn1` (stereo not drawn) [Doxylamine succinate] was -0.967.
`C=CCNC(N)=S` [Allylthiourea] came in with a total cell number of 6.27.
In the case of `CNC(=O)c1cccc(-c2ccc3c(N4CCOC[C@@H]4C)nc(N4CCOC[C@@H]4C)nc3n2)c1` it was -8.56.
`COc1cc2nccc(Oc3ccc(NC(=O)Nc4cc(C)on4)c(Cl)c3)c2cc1OC` [Tivozanib (AV-951)] registered a total cell number of -23.5.
The value for `CC(C)(C#N)c1cc(Cn2cncn2)cc(C(C)(C)C#N)c1` [Anastrozole] was -2.07.
In turn, `C[C@@H](O)[C@H]1C(=O)N2C(C(=O)O)=C(S[C@@H]3CN[C@H](CNS(N)(=O)=O)C3)[C@H](C)[C@H]12` [Doripenem Hydrate] displayed a total cell number of -2.66.
Compound `O=C(Nc1ccccc1C(=O)NC1CCCCNC1=O)c1cc2ccccc2s1` (stereo not drawn) showed a total cell number of -0.315.
Regarding `Nc1ccn([C@H]2CC[C@@H](CO)O2)c(=O)n1` [2',3'-dideoxycytidine], the total cell number is -1.23.
The value for `Nc1ccn([C@H]2CC[C@@H](CO)O2)c(=O)n1` [Zalcitabine] was 0.741.
In the case of `CCc1cc(Nc2nccc(-c3c(-c4ccc(OC)c(C(=O)Nc5c(F)cccc5F)c4)nc4ccccn34)n2)c(OC)cc1N1CCC(N2CCN(S(C)(=O)=O)CC2)CC1` it was 1.44; in that of `CC(S)C(=O)NCC(=O)O` (stereo not drawn) [Tiopronin], -2.65; in that of `CN1CCN(CCCN2c3ccccc3Sc3ccc(C(F)(F)F)cc32)CC1` [Trifluoperazine 2HCl], -12.1.
In the case of `CN1CCN(CCCN2c3ccccc3Sc3ccc(C(F)(F)F)cc32)CC1` [Trifluoperazine dihydrochloride] it was -6.91; in that of `CNCc1ccc(-c2cc(-c3nc(-c4ccc(S(=O)(=O)C(C)C)cc4)cnc3N)on2)cc1`, -14.8.
The compound `CNC[C@H](O)c1ccc(O)c(O)c1` (racemic) [(±)-Epinephrine hydrochloride] showed a total cell number of -0.342.
`CNC[C@H](O)c1ccc(O)c(O)c1` [(-)-Epinephrine bitartrate] displayed a total cell number of 0.182.
The value for `CNC[C@H](O)c1ccc(O)c(O)c1` [Epinephrine Bitartrate] was 0.13; that for `CNC[C@H](O)c1ccc(O)c(O)c1` [Epinephrine HCl] was -0.436; that for `O=C(NCc1ccccc1)c1csc(Nc2ccncn2)n1` [Thiazovivin] was -5.19.
In the case of `C=CC(=O)Nc1cc2c(Nc3ccc(F)c(Cl)c3)ncnc2cc1OCCCN1CCOCC1` [Canertinib (CI-1033)], the total cell number is -24.4.
On to `OC(CNCC(O)C1CCc2cc(F)ccc2O1)C1CCc2cc(F)ccc2O1` (stereo not drawn) [Nebivolol], for which the total cell number is -6.15.
The compound `CC[C@H](C)[C@H](N)C1=N[C@H](C(=O)N[C@@H](CC(C)C)C(=O)N[C@H](CCC(=O)O)C(=O)N[C@H](C(=O)N[C@H]2CCCCNC(=O)[C@H](CC(N)=O)NC(=O)[C@@H](CC(=O)O)NC(=O)[C@H](Cc3cnc[nH]3)NC(=O)[C@@H](Cc3ccccc3)NC(=O)[C@H]([C@@H](C)CC)NC(=O)[C@@H](CCCN)NC2=O)[C@@H](C)CC)CS1` [Bacitracin] showed a total cell number of 1.03.
Compound `O=C(CCc1ccc(O)cc1)c1c(O)cc(O)cc1O` [Phloretin] returned a total cell number of -0.713 ± 0.4.
In the case of `CCCCCCCCCCCCCCCC(=O)OC(CC(=O)O)C[N+](C)(C)C` (racemic) [Palmitoyl-DL-Carnitine chloride] it was -0.836.
The value for `O=C(O)c1cc(/N=N/c2ccc(O)c(C(=O)O)c2)ccc1O` [Olsalazine Sodium] was -1.09; that for `COc1ccc2c(c1OC)C(=O)O[C@@H]2[C@H]1c2c(cc3c(c2OC)OCO3)CCN1C` [Noscapine hydrchloride] was -1.14; that for `O=C(Nc1ccccc1-c1cn2c(CN3CCNCC3)csc2n1)c1cnc2ccccc2n1` was -27.8.
In the case of `CNC(=O)c1cc(Oc2ccc(NC(=O)Nc3ccc(Cl)c(C(F)(F)F)c3)c(F)c2)ccn1` [Regorafenib (BAY 73-4506)] it was 0.684; in that of `CC(C)C[C@H](NC(=O)[C@H](O)[C@H](N)Cc1ccccc1)C(=O)O` [Epibestatin hydrochloride], -2.38; in that of `CN(C)CC(=O)Nc1ccc2[nH]c(=O)c3ccccc3c2c1`, -5.5.
`CC(C)C[C@H](NC(=O)[C@@H](NC(=O)c1cccc(-c2ccccc2)n1)[C@@H](C)O)B(O)O` gave a total cell number of -22.6.
Turning to `CNC(=O)c1cc(Oc2ccc(NC(=O)Nc3cc(C(C)(C)C)nn3-c3ccc4ncccc4c3)c(F)c2)ccn1` [DCC-2036 (Rebastinib)], the total cell number is -10.3.
The compound `OC[C@H]1O[C@H](O[C@]2(CCl)O[C@H](CCl)[C@@H](O)[C@@H]2O)[C@H](O)[C@@H](O)[C@H]1Cl` [Sucralose] showed a total cell number of -0.382.
On to `Cc1nc(C#Cc2cccnc2)cs1` [MTEP hydrochloride], for which the total cell number is -2.19.
In the case of `O=C(O)c1cc(=O)cc(C(=O)O)[nH]1` [Chelidamic acid] it was -1.06; in that of `Nc1nc2ccc(OC(F)(F)F)cc2s1` [Riluzole], -2.38 ± 0.18.
In the case of `CN1CCC(=C2c3ccccc3CCc3cccnc32)CC1` [Azatadine dimaleate] it was -1.63; in that of `COc1ccc2c(c1)c(CC(=O)O)c(C)n2C(=O)c1ccc(Cl)cc1` [Indomethacin], -0.514 ± 0.14; in that of `C(=C\c1ccccc1)/CN1CCN(C(c2ccccc2)c2ccccc2)CC1` [Cinnarizine], -2.96.
As for `C[C@@H]1CCO[C@H]2Cn3cc(C(=O)NCc4ccc(F)cc4F)c(=O)c(O)c3C(=O)N12`, the total cell number is -1.73.
Turning to `O=C(C1CCCCC1)N1CC(=O)N2CCc3ccccc3C2C1` (stereo not drawn) [Praziquantel], the total cell number was determined as 3.35 ± 6.5.
The value for `C[C@]1(O)C[C@@H](c2nc(-c3ccc4ccc(-c5ccccc5)nc4c3)c3c(N)nccn32)C1` [OSI-906 (Linsitinib)] was -22.4; that for `O=C(Oc1cc(S(=O)(=O)c2ccccc2)ccc1[N+](=O)[O-])c1ccc(Cl)cc1` was 0.667.
In the case of `CN(C)C(=O)[C@H](O)[C@H](Cc1ccccc1)NC(=O)c1cc2cc(Cl)ccc2[nH]1` it was 0.79 ± 0.2.
Consider `COc1ccc(C2CC(=O)c3c(O)cc(OC4OC(COC5OC(C)C(O)C(O)C5O)C(O)C(O)C4O)cc3O2)cc1OC` (stereo not drawn) [Methyl-Hesperidin], for which the total cell number was -1.13.
`Cc1cc(CN2CCN(c3c(Br)cnc4nc(-c5ccc(N6CCN(C)CC6)cc5)[nH]c34)CC2)no1`: the total cell number is -11.4.
`CC(=O)/C=C1/C(=O)N(C)c2ccccc21` [Supercinnamaldehyde] yielded a total cell number of -2.46.
The value for `N[C@@H](Cc1cc(I)c(Oc2ccc(O)c(I)c2)c(I)c1)C(=O)O` [Liothyronine Sodium] was 2.19; that for `Cc1ccc(=O)n(-c2ccccc2)c1` [Pirfenidone] was -0.894 ± 0.42; that for `CS(=O)(=O)c1ccc(-n2nc(C(F)(F)F)cc2-c2ccc(F)cc2)cc1` was -0.978.
`C[C@H](CCC(=O)O)[C@H]1CC[C@H]2[C@@H]3[C@@H](O)C[C@@H]4C[C@H](O)CC[C@]4(C)[C@H]3CC[C@]12C` [Ursodiol] registered a total cell number of 1.96.
`Cc1cc(NC(=O)Nc2ccc3c(ccn3C)c2)sn1`: the total cell number is -1.4.
`O=C(CCCN1CCN(c2ccccn2)CC1)c1ccc(F)cc1` [Azaperone] came in with a total cell number of -0.285.
`O=C(Nc1ccncc1)c1cc([N+](=O)[O-])ccc1Cl` yielded a total cell number of -5.18 ± 2.6.
In the case of `N[C@@H](CS(=O)O)C(=O)O` [L-Cysteinesulfinic Acid] it was -1.64; in that of `COCCCN1CCC(NC(=O)c2cc(Cl)c(N)c3c2OCC3)CC1` [Prucalopride], 0.665.
`COCCCN1CCC(NC(=O)c2cc(Cl)c(N)c3c2OCC3)CC1` [Prucalopride Succinat] had a total cell number of 0.55.
The value for `C[C@@H](CN1CCC(Cc2ccccc2)CC1)[C@@H](O)c1ccc(O)cc1` [Ro 25-6981 hydrochloride] was 6.11; that for `N#Cc1cc2nc(O)c(O)nc2cc1[N+](=O)[O-]` [CNQX disodium] was -0.302.
In the case of `COC(=O)C1=C(C#N)NC(C)=C(C(=O)OC(C)C)C1c1cccc([N+](=O)[O-])c1` (stereo not drawn) [Nilvadipine] it was -7.9; in that of `OCCN(CCO)c1nc(N2CCCCC2)c2nc(N(CCO)CCO)nc(N3CCCCC3)c2n1` [Dipyridamole], 1.22 ± 0.84; in that of `Cc1ccc(NC(=O)c2cccc(C(C)(C)C#N)c2)cc1Nc1ccc2ncn(C)c(=O)c2c1`, -5.53.
The value for `CC[C@H](CO)Nc1nc(NCc2ccccc2)c2ncn(C(C)C)c2n1` [Roscovitine] was -2.91.
Regarding `CC[C@H](CO)Nc1nc(NCc2ccccc2)c2ncn(C(C)C)c2n1` [Roscovitine (Seliciclib,CYC202)], the total cell number was -7.35.
`C[N+](C)(C)CC(=O)O` [Betaine hydrochloride] displayed a total cell number of -1.13.
In the case of `CC[C@@H](C)Nc1cc(C(=O)N[C@H]2C[C@H]3CC[C@@H](C2)N3c2ccc(C(=O)C3CC3)cn2)c(C)cc1C(N)=O`, the total cell number was -16.2.
In the case of `Cc1ccc(F)c(NC(=O)Nc2ccc(-c3cccc4[nH]nc(N)c34)cc2)c1` [Linifanib (ABT-869)] it was -13; in that of `CC(C)OC(=O)C1=CN(C(=O)c2ccc(F)c(F)c2)CC(C)(C)c2c1[nH]c1ccccc21`, -1.15.
`CN1CCN(C(c2ccccc2)c2ccccc2)CC1` [Cyclizine 2HCl] registered a total cell number of 0.00402.
In turn, `O=C(/C=C\n1cnc(-c2cc(C(F)(F)F)cc(C(F)(F)F)c2)n1)N1CC(F)(F)C1` returned a total cell number of -13.6.
`CC(C)(C)[N+]([O-])=Cc1ccc(S(=O)(=O)O)cc1S(=O)(=O)O` yielded a total cell number of -1.02.
`Nc1nc(Cl)nc2c1ncn2[C@@H]1O[C@H](CO)[C@@H](O)[C@H]1O` [2-Chloroadenosine] registered a total cell number of -3.18.
The value for `NO` [Hydroxylamine hydrochloride] was -0.846; that for `Cc1cccc(CC(=O)N2CCc3c2ccc(-c2cn(C)c4ncnc(N)c24)c3F)n1` was -2.13 ± 0.79.
